# Laboratory results published in the supplement of paper PMC8728848.
# The list shows a part of the results.
# Experiments:
# Test in all cases: glycan array binding signal (z-score within array); higher = stronger binding
# Conditions in all cases: glycan notation: IUPAC condensed, linker removed
# [1] = biological target: Gal(b1-4)GlcNAc(b1-3)Gal(b1-4)GlcNAc(b1-6)[Gal(b1-3)]GalNAc
# In short: (§1)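 Glycan array data came from 3228 arrays in the Consortium for Functional Glycomics database, and only arrays with an available protein sequence were kept. Glycan names were put into IUPAC-condensed notation, and columns mapping to the same glycan were averaged. The binding signal is a within-array Z-score, averaged across arrays of one protein sequence run at different concentrations or buffers and across linkers. A negative Z-score can be read as non-binding.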
# [2] = biological target: Gal(b1-4)GlcNAc(b1-3)Gal(b1-4)[Fuc(a1-3)]GlcNAc(b1-3)Gal(b1-4)[Fuc(a1-3)]GlcNAc
# In short: as §1
# [3] = biological target: Gal(b1-4)GlcNAc(b1-3)GalNAc
# In short: as §1
# [4] = biological target: Gal(b1-4)GlcNAc(b1-3)[Fuc(a1-3)GlcNAc(b1-6)]Gal(b1-4)Glc
# In short: as §1
# [5] = biological target: Gal(b1-4)GlcNAc(b1-3)[Gal(b1-4)GlcNAc(b1-6)]Gal(b1-4)GlcNAc
# In short: as §1
# [6] = biological target: Gal(b1-4)GlcNAc(b1-3)[GlcNAc(b1-6)]Gal(b1-4)GlcNAc
# In short: as §1
# [7] = biological target: Gal(b1-4)GlcNAc(b1-6)Gal(b1-4)GlcNAc
# In short: as §1
# [8] = biological target: Gal(b1-4)GlcNAc(b1-6)GalNAc
# In short: as §1
# [9] = biological target: Gal(b1-4)GlcNAc(b1-6)[Gal(b1-3)]GalNAc
# In short: as §1
# [10] = biological target: Gal(b1-4)GlcNAc(b1-6)[Gal(b1-4)GlcNAc(b1-3)]GalNAc
# In short: as §1
# Gal(b1-4)GlcNAc6P = biological target: Gal(b1-4)GlcNAc6P
# In short: as §1
# Gal(b1-6)Gal = biological target: Gal(b1-6)Gal
# In short: as §1
# Gal3S(b1-3)GalNAc = biological target: Gal3S(b1-3)GalNAc
# In short: as §1
# Gal3S(b1-3)GlcNAc = biological target: Gal3S(b1-3)GlcNAc
# In short: as §1
# [11] = biological target: Gal3S(b1-3)[Fuc(a1-4)]GlcNAc
# In short: as §1
# Gal3S(b1-4)Glc = biological target: Gal3S(b1-4)Glc
# In short: as §1
# Gal3S(b1-4)Glc6S = biological target: Gal3S(b1-4)Glc6S
# In short: as §1
# Gal3S(b1-4)GlcNAc = biological target: Gal3S(b1-4)GlcNAc
# In short: as §1
# [12] = biological target: Gal3S(b1-4)[Fuc(a1-3)]Glc6S
# In short: as §1
# [13] = biological target: Gal3S(b1-4)[Fuc(a1-3)]GlcNAc
# In short: as §1
# [14] = biological target: Gal3S(b1-4)[Fuc(a1-3)]GlcNAc6S
# In short: as §1
# Gal3S4S(b1-4)GlcNAc = biological target: Gal3S4S(b1-4)GlcNAc
# In short: as §1
# Gal3S6S(b1-4)GlcNAc = biological target: Gal3S6S(b1-4)GlcNAc
# In short: as §1
# Gal3S6S(b1-4)GlcNAc6S = biological target: Gal3S6S(b1-4)GlcNAc6S
# In short: as §1
# Gal4S(b1-4)GlcNAc = biological target: Gal4S(b1-4)GlcNAc
# In short: as §1
# Gal4S6S(b1-4)GlcNAc = biological target: Gal4S6S(b1-4)GlcNAc
# In short: as §1
# Gal6P(b1-4)GlcNAc = biological target: Gal6P(b1-4)GlcNAc
# In short: as §1
# Gal6S(b1-3)GlcNAc = biological target: Gal6S(b1-3)GlcNAc
# In short: as §1
# Gal6S(b1-3)GlcNAc6S = biological target: Gal6S(b1-3)GlcNAc6S
# In short: as §1
# Gal6S(b1-4)Glc = biological target: Gal6S(b1-4)Glc
# In short: as §1
# Gal6S(b1-4)Glc6S = biological target: Gal6S(b1-4)Glc6S
# In short: as §1
# Gal6S(b1-4)GlcNAc = biological target: Gal6S(b1-4)GlcNAc
# In short: as §1
# Gal6S(b1-4)GlcNAc6S = biological target: Gal6S(b1-4)GlcNAc6S
# In short: as §1
# GalNAc(a1-3)Gal = biological target: GalNAc(a1-3)Gal
# In short: as §1
# GalNAc(a1-3)GalNAc = biological target: GalNAc(a1-3)GalNAc
# In short: as §1
# [15] = biological target: GalNAc(a1-3)GalNAc(b1-3)Gal(a1-4)Gal(b1-4)Glc
# In short: as §1
# [16] = biological target: GalNAc(a1-3)GalNAc(b1-3)Gal(a1-4)Gal(b1-4)GlcNAc
# In short: as §1
# GalNAc(b1-3)Gal = biological target: GalNAc(b1-3)Gal
# In short: as §1
# [17] = biological target: GalNAc(b1-3)Gal(a1-4)Gal(b1-4)GlcNAc
# In short: as §1
# [18] = biological target: GalNAc(b1-3)Gal(a1-4)Gal(b1-4)GlcNAc(b1-3)Gal(b1-4)Glc
# In short: as §1
# [19] = biological target: GalNAc(b1-3)Gal(a1-6)Gal(b1-4)Glc
# In short: as §1
# GalNAc(b1-3)GalNAc = biological target: GalNAc(b1-3)GalNAc
# In short: as §1
# GalNAc(b1-3)GlcNAc = biological target: GalNAc(b1-3)GlcNAc
# In short: as §1
# GalNAc(b1-4)Gal(b1-4)Glc = biological target: GalNAc(b1-4)Gal(b1-4)Glc
# In short: as §1
# GalNAc(b1-4)GlcNAc = biological target: GalNAc(b1-4)GlcNAc
# In short: as §1
binder,measurement,setting,value
Arath Fbox LD (Arabidopsis thaliana) (protein) EFSVWLEKASGKRCLMLSAMNLSIIWGDNPQYWQWIPIPESRFEKVAKLRDVCWFEIRGRTNTRVLSPRTRYSAYIVFKGVDKCYGFQNVAIEAAVGVVGQEPSRRLICFSEAIRRGRRNVVKPKQREDGWMEIELGEFFNDGGIMDNDEIEMSALETKQLNRKCGLIIQGIEIRPAKILAAASFLEQKLISEEDLNSAVDHHHHHH,glycan array binding signal (z-score),[1],-0.232
same,glycan array binding signal (z-score),[2],-0.413
same,glycan array binding signal (z-score),[3],-0.442
same,glycan array binding signal (z-score),[4],-0.596
same,glycan array binding signal (z-score),[5],-0.346
same,glycan array binding signal (z-score),[6],-0.548
same,glycan array binding signal (z-score),[7],-0.326
same,glycan array binding signal (z-score),[8],0.625
same,glycan array binding signal (z-score),[9],-0.495
same,glycan array binding signal (z-score),[10],-0.018
same,glycan array binding signal (z-score),Gal(b1-4)GlcNAc6P,-0.55
same,glycan array binding signal (z-score),Gal(b1-6)Gal,0.384
same,glycan array binding signal (z-score),Gal3S(b1-3)GalNAc,2.23
same,glycan array binding signal (z-score),Gal3S(b1-3)GlcNAc,0.381
same,glycan array binding signal (z-score),[11],-0.069
same,glycan array binding signal (z-score),Gal3S(b1-4)Glc,4.4
same,glycan array binding signal (z-score),Gal3S(b1-4)Glc6S,2.1
same,glycan array binding signal (z-score),Gal3S(b1-4)GlcNAc,1.3
same,glycan array binding signal (z-score),[12],1.65
same,glycan array binding signal (z-score),[13],-0.17
same,glycan array binding signal (z-score),[14],3.79
same,glycan array binding signal (z-score),Gal3S4S(b1-4)GlcNAc,0.379
same,glycan array binding signal (z-score),Gal3S6S(b1-4)GlcNAc,2.51
same,glycan array binding signal (z-score),Gal3S6S(b1-4)GlcNAc6S,1.53
same,glycan array binding signal (z-score),Gal4S(b1-4)GlcNAc,0.356
same,glycan array binding signal (z-score),Gal4S6S(b1-4)GlcNAc,-0.39
same,glycan array binding signal (z-score),Gal6P(b1-4)GlcNAc,-0.578
same,glycan array binding signal (z-score),Gal6S(b1-3)GlcNAc,0.319
same,glycan array binding signal (z-score),Gal6S(b1-3)GlcNAc6S,-0.456
same,glycan array binding signal (z-score),Gal6S(b1-4)Glc,0.172
same,glycan array binding signal (z-score),Gal6S(b1-4)Glc6S,1.23
same,glycan array binding signal (z-score),Gal6S(b1-4)GlcNAc,0.271
same,glycan array binding signal (z-score),Gal6S(b1-4)GlcNAc6S,0.739
same,glycan array binding signal (z-score),GalNAc(a1-3)Gal,0.687
same,glycan array binding signal (z-score),GalNAc(a1-3)GalNAc,1.9
same,glycan array binding signal (z-score),[15],-0.242
same,glycan array binding signal (z-score),[16],-0.368
same,glycan array binding signal (z-score),GalNAc(b1-3)Gal,0.377
same,glycan array binding signal (z-score),[17],-0.408
same,glycan array binding signal (z-score),[18],-0.637
same,glycan array binding signal (z-score),[19],-0.549
same,glycan array binding signal (z-score),GalNAc(b1-3)GalNAc,0.547
same,glycan array binding signal (z-score),GalNAc(b1-3)GlcNAc,-0.567
same,glycan array binding signal (z-score),GalNAc(b1-4)Gal(b1-4)Glc,0.019
same,glycan array binding signal (z-score),GalNAc(b1-4)GlcNAc,-0.572
